# PubChem BioAssay AID504339 (National Center for Advancing Translational Sciences (NCATS), 2011)
# Hit rate of the full screen: of about 390,000 compounds, about 17,000 (4.4%) were called active. The inconclusive results got no clear call from the source; some entries with a clear call stand among them for comparison. Calls come from the whole dose curve; as a rule, active = well fitted inhibition curve with a large enough effect; inconclusive = small, poorly fitted or top-dose-only effect; inactive = no such curve, though single readings can be large or run the other way. Where the call is inconclusive, the potency comes from a doubtful curve fit.
# Molecular target: Lysine-specific demethylase 4A (Homo sapiens) (UniProt O75164)
# UniProt O75164, sequence (O75164 whole entry, looked up, the tested form may be a part): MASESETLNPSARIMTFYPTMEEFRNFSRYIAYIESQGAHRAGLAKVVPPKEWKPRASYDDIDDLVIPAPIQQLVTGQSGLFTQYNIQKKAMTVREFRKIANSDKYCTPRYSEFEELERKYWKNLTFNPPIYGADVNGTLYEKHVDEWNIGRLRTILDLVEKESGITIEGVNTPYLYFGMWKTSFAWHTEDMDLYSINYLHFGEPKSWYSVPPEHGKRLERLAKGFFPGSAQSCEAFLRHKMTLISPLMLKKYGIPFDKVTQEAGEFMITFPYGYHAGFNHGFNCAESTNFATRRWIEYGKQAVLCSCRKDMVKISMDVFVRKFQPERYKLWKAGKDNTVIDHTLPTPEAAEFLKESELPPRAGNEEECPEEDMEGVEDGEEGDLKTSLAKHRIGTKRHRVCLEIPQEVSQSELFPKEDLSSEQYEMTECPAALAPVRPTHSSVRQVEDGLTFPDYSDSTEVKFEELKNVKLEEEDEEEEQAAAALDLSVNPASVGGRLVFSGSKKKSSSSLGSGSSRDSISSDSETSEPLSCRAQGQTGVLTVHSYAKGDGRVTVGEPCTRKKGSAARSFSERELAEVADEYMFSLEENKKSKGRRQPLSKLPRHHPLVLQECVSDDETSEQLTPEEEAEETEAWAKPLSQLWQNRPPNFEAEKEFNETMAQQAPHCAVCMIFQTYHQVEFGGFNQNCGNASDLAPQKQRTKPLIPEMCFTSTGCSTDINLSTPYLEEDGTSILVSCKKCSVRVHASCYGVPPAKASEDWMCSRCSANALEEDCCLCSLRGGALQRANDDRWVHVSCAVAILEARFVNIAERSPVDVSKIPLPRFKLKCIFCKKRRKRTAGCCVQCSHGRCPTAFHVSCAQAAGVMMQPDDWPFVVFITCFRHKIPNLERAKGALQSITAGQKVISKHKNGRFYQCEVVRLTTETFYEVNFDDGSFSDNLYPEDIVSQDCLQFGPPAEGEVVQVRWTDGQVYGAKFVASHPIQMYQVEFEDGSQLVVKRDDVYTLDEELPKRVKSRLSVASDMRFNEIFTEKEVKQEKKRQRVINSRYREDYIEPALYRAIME
# Assay: qHTS Assay for Inhibitors of JMJD2A-Tudor Domain; note: nearly all actives have a fitted effect of over 50% in size
# Settings: AlphaScreen JMJD2A-Tudor / H3K4me3 peptide binding; activity change, negative = inhibition: at 114 µM (top of the series)
# % is set by controls: 0 for no effect and ±100 for the full control effect; potency is the fitted concentration of half-maximal effect; tags give direction and shape of the fitted curve.
Structure (SMILES),Potency,"activity change, negative = inhibition"
CCn1c(Cc2cccc3ccccc23)nnc1SCC(=O)Nc1nccs1,active: 79.4 µM,–
CCCCNC(=O)CC1Nc2ccccc2NC1=O (centres undefined),inactive,–
COC(=O)/C(C(C)=O)=C(/C=C/C=C/N(C)C)N(C)C,"inconclusive: 89.1 µM [inhibitor, single point]",–
CCN1CCN(CCOc2cccc(Oc3ccccc3)c2)CC1,active: 4.47 µM,–
COc1cc(CNC2CCCCC2OC)cc(OC)c1OC (centres undefined),–,inconclusive: -100% [inhibitor]
COc1ccc(C2=Nn3c(nnc3-c3ccccc3O)SC2)cc1OC,inactive,–
Clc1nssc1=Nc1ccccc1,active: 79.4 µM,–
CCCCC(CCc1ccccn1)C(=O)c1ccccc1 (centres undefined),inactive,–
COc1ccc(-c2cc(C(F)(F)F)nc(N3CCN(C)CC3)n2)cc1,"inconclusive: 100 µM [inhibitor, partial curve, poor fit]",–
CNCCc1ccccn1,"inconclusive: 89.1 µM [inhibitor, single point]",–
COc1ccc(-n2nc3cc(C)c(NC(=O)c4ccc(-c5ccc(Br)cc5)o4)cc3n2)cc1,inactive,–
COc1ccc(OC)c2sc(N(CCN(C)C)C(=O)c3ccc4ccccc4c3)nc12,"inconclusive: 15.8 µM [inhibitor, full curve]",–
C=CCn1c(Cc2ccccc2)n[nH]c1=S,active: 3.55 µM,–
CCOc1ccc(C2=NC(c3cccs3)=Nc3ccc(CC)cc3N2)cc1OCC,active: 25.1 µM,–
O=C(NCCN1CCCC1)c1ccc(Cn2c(=S)[nH]c3cc4c(cc3c2=O)OCO4)cc1,active: 39.8 µM,–
Cc1cc(F)ccc1Oc1cc(NN2CCCCC2)c([N+](=O)[O-])cc1[N+](=O)[O-],"inconclusive: 35.5 µM [inhibitor, partial curve]",–
CC(C)(C)C(=O)NC(c1ccccc1)c1c(O)ccc2ccccc12 (centres undefined),inactive,–
COc1ccccc1NC(=O)c1nn(C)c(C(=O)Nc2ccccc2OC)c1[N+](=O)[O-],"inconclusive: 79.4 µM [inhibitor, partial curve]",–
O=[N+]([O-])c1ccc(NNC(=S)Nc2ccccc2)cc1,active: 50.1 µM,–
Nc1nc2c(s1)CCc1c-2cnn1-c1ccccc1,active: 25.1 µM,–
COc1ccc(-c2sc(Nc3ccccc3)n[n+]2-c2ccc(F)cc2)c(OC)c1OC,inactive,–
Cc1ccc(N2CC(C(=O)Nc3c4c(nn3C(C)(C)C)CS(=O)(=O)C4)CC2=O)cc1C (centres undefined),inactive,–
Cn1cc(CN(CCCN2CCOCC2)C(=S)Nc2cccc(Cl)c2)c2ccccc21,"inconclusive: 44.7 µM [inhibitor, partial curve]",–
O=C(O)Cn1nc(-c2ccc(F)cc2)oc1=O,"inconclusive: 17.8 µM [inhibitor, partial curve]",–
Cc1ccc(CCNC(=O)c2ccc3[nH]c(C)c(C)c3c2)cc1,"inconclusive: 56.2 µM [inhibitor, partial curve]",–

Structure (SMILES),Potency,"activity change, negative = inhibition"
CCCCN(C)CCCNC(=O)C1CCN(S(=O)(=O)CC)CC1,"inconclusive: 89.1 µM [inhibitor, single point]",–
N#Cc1nc(Cc2ccccc2)oc1N1CCN(c2cccc(Cl)c2)CC1,"inconclusive: 3.16 µM [inhibitor, full curve]",–
O=C(CCCN1C(=O)/C(=C\c2ccccc2)SC1=S)N1CCOCC1,"inconclusive: 50.1 µM [inhibitor, partial curve]",–
CCOCCCn1c(=S)[nH]c2cc(C(=O)N3CCOCC3)ccc2c1=O,active: 22.4 µM,–
CCCCN(C)CCCNC(=O)CN1N=C(c2ccc(OC)cc2)CCC1=O,inactive,–
CSC1=NC(C)(C)C=C(/C=C/c2ccc(Cl)cc2)N1,"inconclusive: 56.2 µM [inhibitor, partial curve]",–
CCO[C@@H]1OC(C(=O)N2CCN(Cc3ccc4c(c3)OCO4)CC2)=C[C@H](c2cn(C(C)=O)c3ccccc23)[C@H]1CCCO,"inconclusive: 50.1 µM [inhibitor, partial curve]",–
CCN(CC)c1ccc(C2N(C(=O)N3CCOCC3)CCN2S(=O)(=O)c2ccc(C)cc2)cc1 (centres undefined),"inconclusive: 44.7 µM [inhibitor, partial curve]",–
COc1cn(-c2ccccc2)nc1C(=O)Nc1ccc(C)cc1Cl,"inconclusive: 89.1 µM [inhibitor, partial curve]",–
O=C(NC(=S)Nc1nc(-c2ccc(Cl)cc2)cs1)c1cccs1,"inconclusive: 8.91 µM [inhibitor, full curve]",–
Cc1ccccc1CN(C)C(=O)COC(=O)c1ccc2[nH]c(C)c(C)c2c1,"inconclusive: 50.1 µM [inhibitor, partial curve]",–
CCc1nnc(NS(=O)(=O)c2ccc(NC(=S)NC(=O)c3ccncc3)cc2)s1,"inconclusive: 79.4 µM [inhibitor, partial curve]",–
O=C(CSc1cn(CC(=O)N2CCCCCC2)c2ccccc12)NCC1CCCO1 (centres undefined),inactive,–
CC(C)NC(=O)c1nn2c(C(F)(F)F)cc(-c3ccco3)nc2c1Cl,inactive,–
COc1ccc(-n2ncc3c2CC(C)(C)CC3NC(=O)c2c(C)cc(=O)oc2C)cc1 (centres undefined),"inconclusive: 14.1 µM [inhibitor, full curve, poor fit]",–
Cn1cccc1/C=N\NC(=O)Cc1ccc(Br)c2ccccc12,inactive,–
CC(C)(C)N(Cc1ccccc1)C(=O)COC(=O)C1CC(=O)N(Cc2ccccc2)C1 (centres undefined),inactive,–
COc1ccc2c(c1)CCc1sc(NC(=O)c3cccc(Br)c3)nc1-2,"inconclusive: 56.2 µM [inhibitor, partial curve]",–
Oc1ccc(/C=N/Nc2ncc(Br)cn2)c(O)c1,"inconclusive: 35.5 µM [inhibitor, single point]",–
CC(C)CN1C=C2C(=O)C(C)(OC(=O)C3CCCC3)C(=O)C=C2C=C1c1ccsc1 (centres undefined),"inconclusive: 79.4 µM [inhibitor, partial curve]",–
c1ccc(Nc2cccc(Nc3ccccc3)n2)cc1,active: 56.2 µM,–
O=C(O)CCCCCNC(=O)OCC1c2ccccc2-c2ccccc21,inactive,–
CCOc1ccc(-c2nnc(SCC(=O)NCc3ccccc3Cl)o2)cc1,inactive,–
O=C1NC(=Nc2ccccc2)S/C1=C\c1cccs1,"inconclusive: 50.1 µM [inhibitor, partial curve]",–
O=C(c1ccc2nc(N3CCCCC3)sc2c1)N1CCN(Cc2ccc3c(c2)OCO3)CC1,"inconclusive: 50.1 µM [inhibitor, partial curve]",–

Structure (SMILES),Potency,"activity change, negative = inhibition"
Nc1nc(-n2cnnc2)nn1-c1ccccc1,inactive,–
c1ccc(CCCN2CCOCC2)cc1,active: 20 µM,–
CC(=O)Nc1cccc(NC(=O)CSc2ccc(-c3ccco3)nn2)c1,"inconclusive: 56.2 µM [inhibitor, partial curve]",–
CN(C)c1cccc(C(=O)N2CCC(c3c[nH]c4ccccc34)(c3c[nH]c4ccccc34)CC2)c1,"inconclusive: 17.8 µM [inhibitor, full curve]",–
C=CCn1c(COc2ccc(CC)cc2)nnc1SCC(=O)NC1CCS(=O)(=O)C1 (centres undefined),inactive,–
NS(=O)(=O)c1ccc(NC(=O)COc2ncnc3sccc23)cc1,"inconclusive: 39.8 µM [inhibitor, single point]",–
O=C(/C=C/c1ccc(Cl)cc1)Nc1ccc(N2CCOCC2)cc1,"inconclusive: 50.1 µM [inhibitor, partial curve]",–
CCOC(=O)c1c(-c2ccc(C)cc2)csc1NC(=O)c1cc(=O)c2cc(C)ccc2o1,active: 56.2 µM,–
O=C(CSc1cn(CCNC(=O)c2ccccc2)c2ccccc12)NCc1ccco1,"inconclusive: 89.1 µM [inhibitor, partial curve, poor fit]",–
CC[C@@H]1CCCCc2ccccc2[C@H](C(=O)C[C@H](O)CC(C)=O)OC1=O,inactive,–
C/C(Cl)=C\Cn1c(O)c(N=NC(N)=S)c2ccccc21,"inconclusive: 31.6 µM [inhibitor, partial curve]",–
COc1ccc(N2CCN(C(=O)C3CCN(C(=O)c4ccccc4Cl)CC3)CC2)cc1,inactive,–
Cc1onc(-c2c(F)cccc2Cl)c1C(=O)Nc1ccccc1N1CCOCC1,"inconclusive: 79.4 µM [inhibitor, single point]",–
CC(=O)N1N=C(c2cccc([N+](=O)[O-])c2)OC1c1ccccc1Cl (centres undefined),"inconclusive: 35.5 µM [inhibitor, partial curve]",–
O=C(O)c1ccc2c(c1)C(=O)N([C@H](Cc1ccc3ccccc3c1)C(=O)O)C2=O,"inconclusive: 89.1 µM [inhibitor, single point]",–
CCCCn1c(-c2c(Cl)c(C)nn2C)n[nH]c1=S,active: 12.6 µM,–
Cc1ccc(N2CC(C(=O)Nc3nnc(SCCN4CCOCC4)s3)CC2=O)cc1C (centres undefined),inactive,–
CC(C)n1c(O)c(N=NC(=O)c2ccccc2NS(=O)(=O)c2cccs2)c2ccccc21,active: 14.1 µM,–
CC(C)C(NC(=O)/C(=C\c1ccco1)NC(=O)c1ccco1)C(=O)O (centres undefined),"inconclusive: 79.4 µM [inhibitor, partial curve]",–
CC1(C)O[C@@H]2[C@H](O1)[C@@H](COS(=O)(=O)O)O[C@H]2n1c(=S)[nH]c2c(=O)[nH]c(N)nc21,active: 20 µM,–
Nc1ccc(C(=O)N2CCN(S(=O)(=O)c3ccc(Br)cc3)CC2)cc1[N+](=O)[O-],"inconclusive: 3.98 µM [inhibitor, full curve, poor fit]",–
N[C@@H](CO)c1cn([C@@H](Cc2cc3ccccc3[nH]2)C(=O)N2CCNCC2)nn1,active: 79.4 µM,–
COc1ccccc1-n1c(C)cc(C=O)c1C,inactive,–
CC(C)c1ccc(OCC(=O)NCCO)cc1,"inconclusive: 28.2 µM [inhibitor, single point]",–
